The record followed here is paper PMC7819943, “Rice protein-binding microarrays: a tool to detect cis-acting elements near promoter regions in rice”.

This is one part of the list.

For the test, the target named is T1, OsWOX13 (Oryza sativa, UniProt Q5QMM3 1-267).
T1 sequence: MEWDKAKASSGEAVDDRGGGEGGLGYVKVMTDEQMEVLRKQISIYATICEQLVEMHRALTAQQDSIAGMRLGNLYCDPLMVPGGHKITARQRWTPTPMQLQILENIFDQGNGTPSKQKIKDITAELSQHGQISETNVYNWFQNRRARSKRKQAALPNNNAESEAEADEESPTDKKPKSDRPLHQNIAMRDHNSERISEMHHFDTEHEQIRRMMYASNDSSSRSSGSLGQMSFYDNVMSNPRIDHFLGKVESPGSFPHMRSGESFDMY
The test is described as follows: protein-binding microarray (RPBM); PBS, 2% BSA, 51.3 ng/ul salmon testes DNA, 50 uM zinc acetate, 200 nM TF, 25 C, 1 h; high values mean tight binding. The note with it: protein: recombinant; tags: N-terminal polyhistidine and DsRed monomer fusion (pET32a); label: CyDye5-dUTP incorporated in the synthesized complementary strand; 3' TTTTT single-stranded linker to array surface; dsDNA, one strand shown. In a few lines:
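Binding signal is reported as fluorescence intensity per feature (arbitrary units) from an Axon 4000B scanner. Incubation used 200 nM of each Ni–NTA-purified, N-terminally polyhistidine- and DsRed-fused transcription factor from E. coli BL21-CodonPlus on a double-stranded custom Agilent array for 1 h at 25 °C, with 50 µM zinc acetate in the buffer, followed by washing.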
For the sequence “AAGATTATAAATGGTTGTGATTGATTAAGACAAGAAAATACGGAGTCACCTAGTGCAG”, the binding signal was 22100 fluorescence intensity (a.u.).

In the case of “GATAAGATTGGGCCGTCCTTCCCGAAGTCAAATCAAGGCCCGGAGTCACCTAGTGCAG”, the binding signal was 3330 fluorescence intensity (a.u.).

For “TCACATTTATTTTAATTATCAATTTTCTTTTCCAAAATGGCGGAGTCACCTAGTGCAG”, the binding signal is 21200 fluorescence intensity (a.u.).

Consider “TCTTGATGAATTTCAACCAAAAGCACGTCACTATATGCAACGGAGTCACCTAGTGCAG”, for which the binding signal is 4130 fluorescence intensity (a.u.).

On to “ATCCTTATTTGATTCCTGATCAAATTAATACTGCTGCTTTCGGAGTCACCTAGTGCAG”, for which the binding signal was 3200 fluorescence intensity (a.u.).

For “CTAGTTAATTAAATAATCACATATATGATCTATGAATATTCGGAGTCACCTAGTGCAG”, the binding signal was 47500 fluorescence intensity (a.u.).

Turning to “TCCATTTGATTACTCGTAACCATCTCCATTCTTTCATCCTCGGAGTCACCTAGTGCAG”, the binding signal is 17800 fluorescence intensity (a.u.).

With “TCATTTCATATAATTATTCTTTTAATAGCAAAACATGTAGCGGAGTCACCTAGTGCAG”, the binding signal is 5910 fluorescence intensity (a.u.).

For “ATTCAAATTTAATTTATTGAAACAAAGTCATATAGCAAAACGGAGTCACCTAGTGCAG”, the binding signal was 23100 fluorescence intensity (a.u.).

For the sequence “GTTTTGGTTTGGTAAAATAGATATAGTGATATACTTTATTCGGAGTCACCTAGTGCAG”, the binding signal is 5750 fluorescence intensity (a.u.).

As for “GCAAATATTTGTCAGATAAATTGCAATTTGACACGTACCTCGGAGTCACCTAGTGCAG”, the binding signal is 9580 fluorescence intensity (a.u.).

Consider “TATGATTAACAGCTCCTCCCTCTCCAGTCCTTGTTCGCCACGGAGTCACCTAGTGCAG”, for which the binding signal is 23100 fluorescence intensity (a.u.).

“GAAGAGGTAATGTGAAGACCAATCATGCCACCTGATTGTTCGGAGTCACCTAGTGCAG”: the binding signal was 7590 fluorescence intensity (a.u.).

Consider “ATGGGAGGTGTCAGTCTATTGATTTATATATATTCAAACGCGGAGTCACCTAGTGCAG”, for which the binding signal was 3870 fluorescence intensity (a.u.).

As for “ACCTTTAATTTGCAGAAAGAAAGAAAGAAAGAAAGAAAGGCGGAGTCACCTAGTGCAG”, the binding signal was 10500 fluorescence intensity (a.u.).

As for “CGAATCTTCTGAGCCTAATTACACCATGATTTGACAATATCGGAGTCACCTAGTGCAG”, the binding signal is 4570 fluorescence intensity (a.u.).

Take “ATATCTATATCTAATTTACTATATTAGAATGTGTCGTATCCGGAGTCACCTAGTGCAG”: the binding signal was 3480 fluorescence intensity (a.u.).

“AGTGTGGAGATTAAATTTATTAATTAGCAGCTGGCTGGTACGGAGTCACCTAGTGCAG”: the binding signal was 25600 fluorescence intensity (a.u.).

Take “ATGTTTAATAGACTAAATTAGCGTCCAAACATCCGATGTGCGGAGTCACCTAGTGCAG”: the binding signal was 34200 fluorescence intensity (a.u.).

As for “GCCAATGAGCAAACTAATTAATTGTTTCCTTATAATTAAGCGGAGTCACCTAGTGCAG”, the binding signal is 14300 fluorescence intensity (a.u.).

On to “AGATCTTAATTATTCTATATATTAATATTCAACCAAACAACGGAGTCACCTAGTGCAG”, for which the binding signal was 6980 fluorescence intensity (a.u.).

As for “GGAGGAGAGAGAGATTGATAGGTAGACAGATATAGGTAGTCGGAGTCACCTAGTGCAG”, the binding signal was 9280 fluorescence intensity (a.u.).

Consider “CCTCTAAATCAAATTATTCAATCTCCATACAAAATTAGACCGGAGTCACCTAGTGCAG”, for which the binding signal was 16300 fluorescence intensity (a.u.).

For the sequence “ATGACTGGCCCTATCAATTACTAGTAACCACTGCTTTCAGCGGAGTCACCTAGTGCAG”, the binding signal is 28700 fluorescence intensity (a.u.).

“CCTCAATCTTTGATGAGCTTCCTTCTCATCCTCTATTGTCCGGAGTCACCTAGTGCAG”: the binding signal was 5890 fluorescence intensity (a.u.).

“TCCCAATTGCTCAGGTCCAATTACTGATAAGCCACCCAGCCGGAGTCACCTAGTGCAG”: the binding signal is 4120 fluorescence intensity (a.u.).

Consider “ATTAACTAATTTTAGTCTAGTCCCTCCCATCCAATGATCCCGGAGTCACCTAGTGCAG”, for which the binding signal was 11100 fluorescence intensity (a.u.).

For the sequence “TCCGGGATTATTTTATAATCAGTGCAGTTGAGAGAGTGAACGGAGTCACCTAGTGCAG”, the binding signal was 5370 fluorescence intensity (a.u.).

“CTCATTAAATAGATGTTTATGTGAGAGTGGGAAGATGGTTCGGAGTCACCTAGTGCAG”: the binding signal is 4410 fluorescence intensity (a.u.).

Consider “ACCTTAATTAGTTCTTTTCTGCTCAGTTATGCTCATCATTCGGAGTCACCTAGTGCAG”, for which the binding signal was 38300 fluorescence intensity (a.u.).

For “CATGTGATTGAAAATACTCTAGATAATAATTGCTAGTGGGCGGAGTCACCTAGTGCAG”, the binding signal is 49200 fluorescence intensity (a.u.).

With “GTCTTCTATAATTACTTTTCCCCGTTCTGGAATAATTGGCCGGAGTCACCTAGTGCAG”, the binding signal is 4740 fluorescence intensity (a.u.).

As to “TTAATCAATTATCTAAGCAATCACCAACGCACCGGGGCAGCGGAGTCACCTAGTGCAG”, the binding signal was 40300 fluorescence intensity (a.u.).

With “ATTAATACTTGACTAATCATACGCTAATGATTTATCTCGTCGGAGTCACCTAGTGCAG”, the binding signal was 12900 fluorescence intensity (a.u.).

On to “AATAAATATAAAATTAATAATATAAATTAATATGTAGTATCGGAGTCACCTAGTGCAG”, for which the binding signal was 13700 fluorescence intensity (a.u.).

As to “TTAAATTACATATACAATTTCATTGTATTTACAATGTAACCGGAGTCACCTAGTGCAG”, the binding signal is 14900 fluorescence intensity (a.u.).

On to “ACAATTAATTTAATTAAATTGAGGTCAGCCATGCATGCAGCGGAGTCACCTAGTGCAG”, for which the binding signal was 64800 fluorescence intensity (a.u.).

As for “AAGTATTAATTTGTCCTAATTAAACTGACTGCATATATTCCGGAGTCACCTAGTGCAG”, the binding signal was 20800 fluorescence intensity (a.u.).

As to “GAGTAGATTGCAGATTCAAGTCAATGGATTTAAGTCATGGCGGAGTCACCTAGTGCAG”, the binding signal is 7850 fluorescence intensity (a.u.).

Consider “CACTATTTTGTAGATTTAATTAATATATGCAACGCATGCTCGGAGTCACCTAGTGCAG”, for which the binding signal is 3970 fluorescence intensity (a.u.).

“TTACACTACGATTATACTGTAATTATATCTGTTAAATTTTCGGAGTCACCTAGTGCAG”: the binding signal is 3740 fluorescence intensity (a.u.).

For the sequence “ACTTATTAATTTGGTAATTTATAGATATCCTTATGTAATACGGAGTCACCTAGTGCAG”, the binding signal was 19100 fluorescence intensity (a.u.).
